{"source": "PubChem BioAssay AID651804", "about": "(National Center for Advancing Translational Sciences (NCATS), 2012)", "note": "In all, about 1,200 compounds went through this assay and about 20 (2%) were called active. The shares of active, inactive and inconclusive entries below differ from those in the screen. Calls come from the whole dose curve; as a rule, active = well fitted inhibition curve with a large enough effect; inconclusive = small, poorly fitted or top-dose-only effect; inactive = no such curve, though single readings can be large or run the other way. No potency is given beside an inconclusive call; the fits are too rough. Potency is the fitted concentration of half-maximal effect; tags give direction and shape of the fitted curve."}
{"target": "Transcriptional regulator ERG (Homo sapiens) (UniProt P11308)", "sequence (P11308 whole entry, looked up, the tested form may be a part)": "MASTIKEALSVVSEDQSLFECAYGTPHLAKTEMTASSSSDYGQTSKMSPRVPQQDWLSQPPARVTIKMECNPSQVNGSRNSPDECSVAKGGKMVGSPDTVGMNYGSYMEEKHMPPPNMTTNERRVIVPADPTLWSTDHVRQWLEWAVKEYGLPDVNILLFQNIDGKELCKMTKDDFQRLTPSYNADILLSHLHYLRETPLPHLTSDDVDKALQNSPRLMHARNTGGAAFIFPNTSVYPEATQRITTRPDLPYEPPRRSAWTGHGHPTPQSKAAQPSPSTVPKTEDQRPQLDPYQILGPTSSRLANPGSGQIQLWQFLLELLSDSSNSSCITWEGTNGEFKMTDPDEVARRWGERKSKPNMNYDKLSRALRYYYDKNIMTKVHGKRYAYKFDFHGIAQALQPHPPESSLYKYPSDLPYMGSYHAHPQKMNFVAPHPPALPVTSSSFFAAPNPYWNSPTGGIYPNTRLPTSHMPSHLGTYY", "assay": "qHTS for Small Molecule Inhibitors of the ERG Ets/DNA interaction: HTRF assay against cherry picks", "settings": "His-ERG Ets domain with biotin-DNA; activity change, negative = inhibition: at 154 µM (top of the series)", "description": "The Ets family of proteins is a family of ~30 conserved transcription factors defined by the presence of an ~85 amino acid domain referred to as the Ets domain, which mediates sequence-specific DNA binding to a core DNA element GGAA/T.The Ets family member ERG has been linked to several neoplasms. […] More extensive studies of the effects of over-expression of ERG in prostate cells have recently been carried out and have shown that over-expression of ERG results in increased invasion. […] We will carry out a high throughout screen to identify inhibitors of the interaction between ERG and DNA using a fluorescence polarization (FP) assay with a His-tagged ERG Ets domain and fluorescently-labeled DNA probes to develop small molecule inhibitors of this interaction as probes to test this hypothesis and lay the groundwork for the development of targeted therapies against ERG. This is the counterscreen against the cherry picks. NIH Molecular Libraries Probe Production Network [MLPCN] NIH Chemical Genomics Center [NCGC] Grant: NS066464 PI Name: John Bushweller, University of Virgina\n2 ul of protein solution (200 nM ERG domain in 300mM KCl, 50mM Tris-HCl, 1mM EDTA, 1mM DTT, pH 7.5); 20 nl Control plate and compound library plate; 2 ul of 200 nM biotin-DNA; incubate for 10 min at RT; 1 ul of anti-His antibody conjugated to the long-life fluorescent cryptate donner […] (5ng/ul) and streptavidin conjugated to the acceptor compound […] (0.2 ng/ul) mix; incubate 10 min and measure FRET (Excitation = 320 nm, Emission = 615, 665 nm)."}
{"smiles": "COc1ccc(C)cc1NS(=O)(=O)c1cccc2nonc12", "Potency": "inconclusive [inhibitor, partial curve, poor fit]"}
{"smiles": "CCOC(=O)COc1ccc(/C=C2/C(=O)NN(c3ccc(F)cc3)C2=O)cc1OC", "Potency": "inconclusive [inhibitor, partial curve, poor fit]"}
{"smiles": "COc1ccc(NC(=O)CSc2cccc3cccnc23)c(OC)c1", "Potency": "inconclusive [inhibitor, partial curve, poor fit]"}
{"smiles": "COc1ccc(N/C=C(\\C(C)=O)c2ccc(OC)c(OC)c2)cc1OC", "Potency": "inconclusive [inhibitor, partial curve, poor fit]"}
{"smiles": "CCCn1c(=N)n(CC(=O)c2ccc([N+](=O)[O-])cc2)c2ccccc21", "Potency": "inconclusive [inhibitor, full curve, poor fit]"}
{"smiles": "Nc1nc(N2CCN(Cc3ccccc3)CC2)n[nH]1", "Potency": "inconclusive [inhibitor, partial curve, poor fit]"}
{"smiles": "O=c1cc(-c2ccc(O)c(O)c2)oc2c1ccc1ccccc12", "Potency": "inconclusive [inhibitor, partial curve, poor fit]"}
{"smiles": "CCn1cc(S(=O)(=O)Nc2ccc(Cl)cc2F)cn1", "activity change, negative = inhibition": "inactive: -8.65%"}
{"smiles": "CSc1nc(-c2ccc(Cl)cc2)nn1C(=O)c1ccccc1", "activity change, negative = inhibition": "inactive: -19.6%"}
{"smiles": "O=C(CN1C=NS(=O)(=O)c2ccccc21)Nc1ccc(Br)cc1", "Potency": "inconclusive [inhibitor, partial curve, poor fit]"}
{"smiles": "COc1cccc(OC)c1C(=O)Nn1c(-c2cccs2)nc2ccccc2c1=O", "Potency": "inconclusive [inhibitor, partial curve, poor fit]"}
{"smiles": "O=C(CCCN1C(=O)/C(=C\\c2cccs2)SC1=S)Nc1cccc(C(=O)O)c1", "Potency": "inconclusive [inhibitor, partial curve, poor fit]"}
{"smiles": "O=C(Nc1ccc(N2CCOCC2)cc1)c1ccc2nc(-c3ccco3)c(-c3ccco3)nc2c1", "Potency": "inconclusive [inhibitor, partial curve, poor fit]"}
{"smiles": "CC1(C)C=C2C(=NN(c3ccccc3)C(N)=C2C#N)CO1", "Potency": "inconclusive [inhibitor, partial curve, poor fit]"}
{"smiles": "CCCC(=O)Nc1nc2c(C)c(Cl)ccc2s1", "Potency": "inconclusive [inhibitor, partial curve, poor fit]"}
{"smiles": "COc1cc(SC)ccc1C(=O)NC(C)C", "activity change, negative = inhibition": "inactive: -29%"}
{"smiles": "NS(=O)(=O)c1ccc(NC(=O)/C(=C/c2ccncc2)NC(=O)c2ccccc2)cc1", "Potency": "inconclusive [inhibitor, partial curve, poor fit]"}
{"smiles": "CC1(C)CC(=O)C2=C(C1)Nc1ccccc1NC2c1cccs1", "note": "(stereo not drawn)", "Potency": "inconclusive [inhibitor, partial curve, poor fit]"}
{"smiles": "Cc1ccc(/C=C2\\SC(N3CCCCC3)=NC2=O)cc1", "Potency": "inconclusive [inhibitor, partial curve, poor fit]"}
{"smiles": "Cc1[nH]c2ccc(F)cc2c1CCNC(=O)C1CCCCC1C(=O)OCC(F)(F)F", "note": "(stereo not drawn)", "Potency": "inconclusive [inhibitor, full curve, poor fit]"}
{"smiles": "CN(C)c1ccc2c3c(ccc(N(C)C)c13)C(=O)OC2", "Potency": "inconclusive [inhibitor, partial curve, poor fit]"}
{"smiles": "CC(C)OCCCNC(=O)C1CCC(CNS(=O)(=O)c2ccccc2)CC1", "note": "(stereo not drawn)", "activity change, negative = inhibition": "inconclusive: -41.1% [inhibitor]"}
{"smiles": "CC(C)Cn1c(SCC(=O)NCc2ccc(Cl)cc2)nnc1-c1cccc(S(=O)(=O)N2CCOCC2)c1", "Potency": "inconclusive [inhibitor, single point]"}
{"smiles": "COC(=O)c1cc(-c2ccc(Cl)cc2)n(-c2ccc(S(N)(=O)=O)cc2)n1", "Potency": "inconclusive [inhibitor, full curve, poor fit]"}
{"smiles": "N#CC1=C(N)Oc2c(ccc3cccnc23)C1c1cccnc1", "note": "(stereo not drawn)", "Potency": "inconclusive [inhibitor, full curve]"}
{"smiles": "CN1CCC2(CC1)C1CN(C)CC=C1C(C#N)=C(N)C2(C#N)C#N", "note": "(stereo not drawn)", "Potency": "inconclusive [inhibitor, partial curve, poor fit]"}
{"smiles": "Cc1ccc(CNC(=O)N[C@@H](Cc2ccccc2)C(=O)O)cc1", "Potency": "inconclusive [inhibitor, full curve, poor fit]"}
{"smiles": "NC(=NCCCCCCN=C(N)/N=C(\\N)Nc1ccc(Cl)cc1)/N=C(\\N)Nc1ccc(Cl)cc1", "Potency": "inconclusive [inhibitor, partial curve, poor fit]"}
{"smiles": "Cc1cc(Br)ccc1NC(=O)CN(C)C(=O)COc1cccc2c1OC(C)(C)C2", "Potency": "inconclusive [inhibitor, partial curve]"}
{"smiles": "O=C(/C=C/c1cccs1)N1CCN(Cc2ccc3c(c2)OCO3)CC1", "Potency": "inconclusive [inhibitor, single point]"}
{"smiles": "O=C(c1ccccc1)c1ccc[nH]1", "Potency": "inconclusive [inhibitor, full curve, poor fit]"}
{"smiles": "CCOc1ccccc1N(C)S(=O)(=O)c1ccc2[nH]cc(C(=O)N(CCOC)CCOC)c(=O)c2c1", "Potency": "inconclusive [inhibitor, single point]"}
{"smiles": "CC12CCC(=O)N1C(C(=O)NCCN1C(=O)S/C(=C\\c3ccccc3Cl)C1=O)CS2", "note": "(stereo not drawn)", "Potency": "inconclusive [inhibitor, partial curve, poor fit]"}
{"smiles": "Cc1cc(S(=O)(=O)N2CCOCC2)ccc1OCC(=O)Nc1ccc(F)c(Cl)c1", "activity change, negative = inhibition": "inactive: -25.9%"}
{"smiles": "O=C(COC(=O)/C=C/c1cccc(C(F)(F)F)c1)NC1CCS(=O)(=O)C1", "note": "(stereo not drawn)", "activity change, negative = inhibition": "inconclusive: -36% [inhibitor]"}
{"smiles": "Cc1cc2cc(CNC(=O)c3cccc([N+](=O)[O-])c3)ccc2[nH]1", "Potency": "inconclusive [inhibitor, partial curve, poor fit]"}
{"smiles": "Nc1c2ccccc2nc2ccccc12", "Potency": "active: 11.2 µM"}
{"smiles": "COc1ccc(/C=N/NC(=O)c2ccc(Br)cc2)c(OC)c1", "Potency": "inconclusive [inhibitor, partial curve, poor fit]"}
